Measured values taken from the supplement of paper PMC12217912.
This is one part of the list. Sequences were assembled here from the parent chain. Inactive controls read about 0.05.

B1: TEV protease; numbered along this chain (parent)
chain: MGESLFKGPRDYNPISSSICHLTNESDGHTTSLYGIGFGPFIITNKHLFRRNNGTLVVQSLHGVFKVKDTTTLQQHLVDGRDMIIIRMPKDFPPFPQKLKFREPQREERICLVTTNFQTKSMSSMVSDTSCTFPSGDGIFWKHWIQTKDGQCGSPLVSTRDGFIVGIHSASNFTNTNNYFTSVPKNFMELLTNQEAQQWVSGWRLNADSVLWGGHKVFMVKPEEPFQPVKEATQL

Variants of: B1
Test: raw area under fraction-flipped curve 0-4 h after induction (AUC4h, not background-subtracted), DNA-recorder readout of cleavage of the substrate (dimensionless); higher = more cleavage of the substrate by the protease variant
Settings: temperature: 34 °C; time window: 0-4 h after rhamnose induction
Experimental: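 In vivo DNA recorder in E. coli TOP10(DE3) ΔrhaA at 34 °C. Each TEVp single-site mutant (parent TEVp 0) is paired with a single-site variant of the 7-mer TEVs (canonical ENLYFQ|S). The substrate sits between flexible linkers in a Bxb1-sfGFP-TEVs-SsrA fusion, so cleavage stabilises Bxb1 and speeds flipping of a recombination array, read by NGS. The value is the raw area under the fraction-flipped curve over 0-4 h after rhamnose induction (AUC4h), with ≥20 reads per time point. It is not background-subtracted; inactive controls average about 0.047.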
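Further: Bxb1 expression induced with 0.2% (w/v) L-rhamnose at OD600 near 0.5, cultures sampled hourly, flipped fraction per protease–substrate barcode pair counted by paired-end Illumina sequencing.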

Variant	area with substrate ENAYFQS	area with substrate ENCYFQS	area with substrate ENDYFQS	area with substrate ENEYFQS	area with substrate ENFYFQS	area with substrate ENGYFQS	area with substrate ENKYFQS	area with substrate ENMYFQS	area with substrate ENNYFQS	area with substrate ENRYFQS	area with substrate ENSYFQS	area with substrate ENTYFQS	area with substrate ENVYFQS	area with substrate ENWYFQS	area with substrate ENYYFQS	area with substrate ENHYFQS	area with substrate ENIYFQS	area with substrate ENPYFQS	area with substrate ENQYFQS
T23L	0.0613	0.063	0.0535	0.0584	0.0607	0.0703	0.0571	0.08	0.0473	0.0567	0.0619	0.0612	0.0711	0.056	0.068				
T23Y	0.0536	0.0608	0.0658	0.0677	0.0562	0.0611		0.0481	0.055	0.064	0.0494	0.0776			0.0512	0.056	0.0969	0.046	0.0568
T23N	0.0592	0.064	0.0636	0.0534		0.0574	0.0477	0.0617	0.0615	0.0608	0.0627	0.0544	0.0733		0.0553	0.0722	0.0993	0.0558	
T23C	0.0568	0.0532	0.0638	0.0653	0.0577		0.0619	0.0947	0.0643	0.0586	0.0619		0.0658	0.0564	0.0565	0.0547	0.134	0.0514	0.0545
E3M	0.0277	0.0697	0.0532	0.0604	0.0359				0.0495	0.0619	0.077	0.0782	0.0808		0.0509	0.0701	0.13		0.055
E3Q	0.0679	0.0673	0.0586	0.0683	0.067	0.0607	0.0698				0.0392	0.0688	0.0658				0.0796		0.0667
E3H	0.0498	0.0687	0.0662	0.053	0.0679		0.0357			0.0631	0.0619	0.0639		0.0585		0.0459		0.045	0.0546
D27C	0.0546	0.0654	0.066	0.0733	0.0421		0.0683		0.0559	0.0418	0.0688	0.0589	0.077		0.0563				0.0601
I19V	0.0617		0.0603	0.0607	0.06						0.0706	0.0613	0.0846		0.0581	0.0509	0.12	0.051	0.0594
I19Y	0.0494	0.068	0.0628	0.0592	0.0459	0.0417	0.0617	0.0517		0.0473	0.0539	0.0428	0.0613	0.0432	0.0456	0.0533		0.0581	0.0606
I19K	0.0543	0.0425	0.034	0.0541			0.0624		0.0355	0.0489	0.0409	0.0491				0.0563	0.0544	0.0488	0.0519
I19P	0.0442	0.0426	0.0442	0.0514	0.047	0.0409	0.0319	0.0461	0.0384	0.0476	0.0465	0.0569	0.054	0.0301	0.0437	0.0402		0.0343	0.0481
Y12L	0.0615	0.0682	0.0553	0.0742		0.0636		0.0883	0.0637		0.0531	0.0792	0.0818	0.0682	0.0539		0.0896		0.0666
E25N	0.0636	0.0673	0.0627	0.052	0.0426	0.0718			0.058	0.0461	0.0637	0.0613			0.0372	0.0561	0.0898	0.0617	0.0561
E25G	0.0626	0.0527	0.0599	0.0608	0.0565	0.0562		0.0649	0.0628	0.056	0.0567	0.0546	0.0577	0.0568	0.0559	0.0658	0.103	0.0772	0.0627
E25R	0.0661	0.0701	0.0553	0.0627	0.0534	0.0564	0.0688	0.0892	0.0518	0.0594	0.06	0.0717	0.0715	0.0123	0.0601	0.0576	0.125	0.0656	0.0568
E25W	0.0693	0.0651	0.0523	0.0559	0.0506	0.0566	0.0511	0.0734	0.0644	0.0507	0.0603	0.0558	0.0757	0.0498		0.0765	0.113		0.05
E25Y	0.062	0.0554	0.0627	0.0601	0.0698	0.061	0.0539	0.0522	0.0513	0.0635	0.0576	0.0676	0.0691	0.0265		0.0601	0.102		0.0583
K7D	0.069		0.068	0.0739				0.0738			0.063	0.0594	0.0563	0.0655		0.0546		0.0602	0.0648
S18A	0.064		0.0769	0.0669	0.0564				0.058	0.0565	0.0479	0.0475	0.0935		0.047	0.06		0.0655	0.0558
D11V	0.0676	0.062	0.0528	0.0669	0.0673	0.065	0.0441	0.074		0.0692	0.063	0.0663	0.0754	0.0444	0.0531	0.0579	0.0811	0.0722	0.0652
H21A	0.0582	0.0577	0.0481	0.0522	0.0607	0.0633	0.0645	0.0785	0.0624	0.0592	0.0621	0.0485	0.0796	0.007	0.0478	0.0657	0.0979	0.0541	0.0603
N13E	0.0601	0.0835	0.0604	0.0522	0.0622	0.0603	0.071	0.0745	0.0534	0.0579	0.07		0.0736	0.0575			0.0823	0.0703	0.0562
